Like-named read-outs stand apart in the source and are kept apart here.
What was measured:
[1] = target: T1, human PD-1 ECD antigen with human Fc tag on C-terminus (Acro Biosystems) (human, UniProt Q15116 partial chain); assay: BLI (Gator), human PD-1 ECD Fc-tag antigen
T1 construct: Bought; also called human PD-1 ECD-Fc; human PD-1 ECD with Fc-tag; not shown: human Fc tag at the C-terminus

[2] = target: T2, recombinant cynomolgus monkey PD-1 ECD fused at its C-terminus to a human Fc tag (Acro Biosystems) (cynomolgus monkey); assay: BLI (Gator Prime), cyno PD-1 ECD-Fc antigen
T2 construct: Bought; also called cyno PD-1 ECD Fc-tag; cyno PD-1 ECD-Fc

[3] = target: T3, recombinant human PD-1 ECD with His tag (Acro Biosystems) (human, UniProt Q15116 partial chain); assay: BLI (Gator), human PD-1 ECD His-tag antigen
T3 construct: also called human PD-1 ECD-His tag; hu-PD-1 ECD His tag; not shown: His tag

[4] = target: T3, recombinant human PD-1 ECD with His tag …; assay: BLI (Gator Prime), VHH-Fc captured on anti-human IgG Fc probe, 1:1 fit
[5] = target: T1, human PD-1 ECD antigen with human Fc …; assay: BLI (Gator), human PD-1 ECD Fc-tag antigen; remark: listed apart in the source

Row | Kd [2] | koff [2] | kon [2] | Kd [4] | koff [4] | kon [4] | Kd [5] | koff [5] | kon [5] | Binder | also measured
1 | 1.3 nM | 8.97e-05 s⁻¹ | 68900 M⁻¹ s⁻¹ | 32.8 nM | 0.00693 s⁻¹ | 212000 M⁻¹ s⁻¹ |  |  |  | anti-PD-1 VHH antibody clone 3A6 (bivalent VHH-Fc) (Fc fusion, Group 1 llama VHH fused to human IgG1 hinge-Fc; bivalent; also called Clone 3A6 VHH) QVQLQESGGGLVQAGGSLRLSCTASGRTFSNYAMGWIRQVSGKELEFVAAISSSGVLRNYADSVKGRFTISRDNAKNTVYLQMNSLKPEDTALYSCAENRRYYGDWRDLNYDSRGQGTQVTVSS[human IgG1 Fc left out] | Kd [1]: 1.81 nM; koff [1]: 0.000254 s⁻¹; kon [1]: 140000 M⁻¹ s⁻¹; koff [3]: 0.00693 s⁻¹; kon [3]: 212000 M⁻¹ s⁻¹
2 |  |  |  |  |  |  |  |  |  | humanized anti-PD-1 VHH antibody clone 3A6-hu03 (Fc fusion, not restated for the humanized clones) EVQLQESGGGLVQAGGSLRLSCTASGRTFSNYAMGWIRQVSGKELEFVAAISSSGVLRNYADSVKGRFTISRDNAKNTVYLQMNSLKPEDTALYSCAENRRYYGDWRDLNYDSRGQGTQVTVSS[human IgG1 Fc left out] | Kd [3]: 69.6 nM; koff [3]: 0.0185 s⁻¹; kon [3]: 266000 M⁻¹ s⁻¹
3 |  |  |  |  |  |  |  |  |  | humanized anti-PD-1 VHH antibody clone 3A6-hu02 (Fc fusion, not restated for the humanized clones) EVQLQESGGGLVQAGGSLRLSCSASGRTFSNYAMGWVRQVSGKELEFVAAISSSGVLRNYADSVKGRFTISRDNSKNTVYLQMNSLKPEDTAVYYCAENRRYYGDWRDLNYDSWGQGTQVTVSS[human IgG1 Fc left out] | Kd [3]: 52.2 nM; koff [3]: 0.00571 s⁻¹; kon [3]: 109000 M⁻¹ s⁻¹
4 | 0.749 nM | 0.00012 s⁻¹ | 160000 M⁻¹ s⁻¹ | 35.3 nM | 0.00712 s⁻¹ | 202000 M⁻¹ s⁻¹ |  |  |  | anti-PD-1 VHH antibody clone 4G7 (bivalent VHH-Fc) (Fc fusion, Group 1 llama VHH fused at its C-terminus to human IgG1 hinge-Fc; bivalent heavy-chain-only format, expressed in ExpiCHO; also called Clone 4G7 VHH) QVKLEESGGGLVQAGGSLRLSCTASGRTFSNYAMGWIRQVSGKELEFVAAISSSGVLRNYADSVKGRFTISRDNAKNTVYLQMNSLKPEDTALYSCAANRRYYGDWRDLNYDSRGQGTLVTVSS[human IgG1 Fc left out] | 
5 |  |  |  |  |  |  |  |  |  | humanized anti-PD-1 VHH antibody clone 3H9-hu01 (Fc fusion, not restated for the humanized clones; also called 3H9-01) EVQLVESGGGLVQAGGSLRLSCTASGRTFSNYAMGWIRQVSGKELEFVAAISSSGVLRNYADSVKGRFTISRDNAKNTVYLQMNSLKPEDTALYSCAANRRYYGDWRDLNYDSRGQGTLVTVSS[human IgG1 Fc left out] | Kd [1]: 1.87 nM; koff [1]: 0.000249 s⁻¹; kon [1]: 133000 M⁻¹ s⁻¹
6 |  |  |  |  |  |  |  |  |  | humanized anti-PD-1 VHH antibody clone 3A6-hu01 (Fc fusion, also called 3A6-01) EVQLQESGGGLVQPGGSLRLSCSASGRTFSNYAMGWIRQVSGKELEFVAAISSSGVLRNYADSVKGRFTISRDNSKNTVYLQMNSLRAEDTAVYYCAENRRYYGDWRDLNYDSWGQGTQVTVSS[human IgG1 Fc left out] | Kd [1]: 1.63 nM; koff [1]: 0.000179 s⁻¹; kon [1]: 109000 M⁻¹ s⁻¹; Kd [3]: 21.6 nM; koff [3]: 0.00677 s⁻¹; kon [3]: 313000 M⁻¹ s⁻¹
7 | 1.12 nM | 0.000168 s⁻¹ | 151000 M⁻¹ s⁻¹ |  |  |  |  |  |  | anti-PD-1 VHH antibody clone 3H9 (bivalent VHH-Fc) (Fc fusion, Group 1 llama VHH fused to human IgG1 hinge-Fc; bivalent; also called Clone 3H9 VHH) QVQLVESGGGLVQAGGSLRLSCTASGRTFSNYAMGWIRQVSGKELEFVAAISSSGVLRNYADSVKGRFTISRDNAKNTVYLQMNSLKPEDTALYSCAANRRYYGDWRDLNYDSRGQGTLVTVSS[human IgG1 Fc left out] | 
8 | 2.21 nM | 0.000257 s⁻¹ | 116000 M⁻¹ s⁻¹ | 39.1 nM | 0.00969 s⁻¹ | 248000 M⁻¹ s⁻¹ |  |  |  | anti-PD-1 VHH antibody clone 4C10 (bivalent VHH-Fc) (Fc fusion, Group 1 llama VHH fused to human IgG1 hinge-Fc; bivalent; also called Clone 4C10 VHH) QVKLEESGGGLVQAGGSLRLSCTASGRTFSNYAMGWIRQVSGKELEFVAAISSSGVLRNYADSVKGRFTISRDNAKNTVYLQMNSLKPEDTALYSCAAIRRYYGDWRDLNYDSRGQGTLVTVSS[human IgG1 Fc left out] | 
9 | 1.85 nM | 0.000198 s⁻¹ | 107000 M⁻¹ s⁻¹ | 23.9 nM | 0.00186 s⁻¹ | 77800 M⁻¹ s⁻¹ | 2.56 nM | 0.000195 s⁻¹ | 76300 M⁻¹ s⁻¹ | anti-PD-1 VHH antibody clone 3D5 (bivalent VHH-Fc) (Fc fusion, Group 2 llama VHH fused to human IgG1 hinge-Fc; bivalent; also called Clone 3D5 VHH) heavy: QVQLQESGGGLVQAGGSLTLSCAASGGTFNYYAMGWFRQAPGLEREFVAAISGSGGSAGYSESAKDRFTISRDNAKKTVYLQMNSLKPEDTAVYYCAADRPNSGSYIPTQRYEYDYWGQGTQVTVSS[human IgG1 Fc left out] | 
10 |  |  |  |  |  |  | 3.81 nM | 0.000266 s⁻¹ | 69800 M⁻¹ s⁻¹ | humanized anti-PD-1 VHH antibody clone 3D5-hu02 (Fc fusion, not restated for the humanized clones) EVQLQESGGGLVQAGGSLTLSCAASGGTFNYYAMGWFRQAPGKEREFVAAISGSGGSAGYSESAKDRFTISRDNAKKTVYLQMNSLKPEDTAVYYCAADRPNSGSYIPTQRYEYDYWGQGTQVTVSS[human IgG1 Fc left out] | 
11 |  |  |  |  |  |  | 7.4 nM | 0.000454 s⁻¹ | 61300 M⁻¹ s⁻¹ | humanized anti-PD-1 VHH antibody clone 3D5-hu04 (Fc fusion, not restated for the humanized clones) EVQLQESGGGLVQAGGSLTLSCAASGGTFNYYAMGWVRQAPGKEREFVAAISGSGGSAGYSESAKDRFTISRDNSKNTVYLQMNSLKPEDTAVYYCAADRPNSGSYIPTQRYEYDYWGQGTQVTVSS[human IgG1 Fc left out] | 
12 |  |  |  |  |  |  | 3.02 nM | 0.000236 s⁻¹ | 78200 M⁻¹ s⁻¹ | humanized anti-PD-1 VHH antibody clone 3D5-hu01 (Fc fusion, not restated for the humanized clones) EVQLQESGGGLVQAGGSLTLSCAASGGTFNYYAMGWFRQAPGLEREFVAAISGSGGSAGYSESAKDRFTISRDNAKKTVYLQMNSLKPEDTAVYYCAADRPNSGSYIPTQRYEYDYWGQGTQVTVSS[human IgG1 Fc left out] | 
13 | 2.61 nM | 0.000245 s⁻¹ | 93800 M⁻¹ s⁻¹ | 59.6 nM | 0.00446 s⁻¹ | 74800 M⁻¹ s⁻¹ |  |  |  | anti-PD-1 VHH antibody clone 3E10 (bivalent VHH-Fc) (Fc fusion, Group 2 llama VHH fused to human IgG1 hinge-Fc; bivalent; also called Clone 3E10 VHH) QVQLVESGGGLVQAGGSLTLSCAASGGTFNYYAMGWFRQAPGLEREFVAAISGSGGSAGYSESAKDRFTISRDNAKKTVYLQMNSLKPEDTAVYYCAADRPNSGSYIPTRIYEYDYWGRGTLVTVSS[human IgG1 Fc left out] | 
14 |  |  |  |  |  |  | 6.48 nM | 0.000378 s⁻¹ | 58300 M⁻¹ s⁻¹ | humanized anti-PD-1 VHH antibody clone 3D5-hu03 (Fc fusion, not restated for the humanized clones) EVQLQESGGGLVQPGGSLTLSCAASGGTFNYYAMGWVRQAPGKEREFVAAISGSGGSAGYSESAKDRFTISRDNSKNTVYLQMNSLRAEDTAVYYCAADRPNSGSYIPTQRYEYDYWGQGTQVTVSS[human IgG1 Fc left out] | 
15 | 1.16 nM | 0.000122 s⁻¹ | 105000 M⁻¹ s⁻¹ | 33.5 nM | 0.00329 s⁻¹ | 98100 M⁻¹ s⁻¹ |  |  |  | anti-PD-1 VHH antibody clone 3C4 (bivalent VHH-Fc) (Fc fusion, Group 2 llama VHH fused to human IgG1 hinge-Fc; bivalent; also called Clone 3C4 VHH) heavy: QVKLEESGGGLVQAGGSLTLSCAASGGTFNYYAMGWFRQAPGLEREFVAAISGSGGSAGYSESAKDRFTISRDNAQKTVYLQMNSLKPEDTAVYYCAADIPNSGSYIPTRRYEYDYWGRGTQVTVSS[human IgG1 Fc left out] | 

Reference: patent US20260242476A1 (BINACEA PHARMA, published 2026)
